# Experimental data from the supplement of paper PMC4723716.
# ± gives the uncertainty stated by the source. Over roughly 9,900 compounds, “viability index relative to DMSO control” has its median near 1; the lowest 2% begin near 0.85. Some of the results follow.
# Tested on: Plasmodium falciparum NF54 stage V gametocytes
# Assay: viability index relative to DMSO control (fraction); higher = less gametocyte killing
# Conditions: 2.5 µM, library set: Broad Institute DOS, incubation time: 72 h
# How it was run: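 P. falciparum NF54 stage V gametocytes (serum-free medium, 0.75% gametocytemia, 1.25% hematocrit) were exposed to compound at 2.5 µM for 72 hr at 37°C under low oxygen, then stained with MitoTracker Red CMXRos and saponin for one to two hours. Red particles of 20–70 µm2 in one field per well were counted, and the viability index is that count scaled to the plate mean of solvent-only wells.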
row,Compound,viability index
1,CCC(=O)N1Cc2cc(C(=O)NCCOC)nc(-c3cccc(-c4ccc(C#N)cc4)c3)c2[C@H]1CCO,1.08 ± 0.077
2,C[C@@H]1CN([C@H](C)CO)C(=O)c2cccc(NC(=O)Nc3ccc4c(c3)OCO4)c2O[C@H]1CN(C)S(C)(=O)=O,0.954 ± 0.09
3,N#C[C@H]1[C@@H](c2ccccc2-c2ccccc2)[C@@H](CO)N1C(=O)Cc1ccncc1,1.1 ± 0.17
4,O=C(c1ccccn1)N1CC[C@@H]2[C@H]1c1cc(C#Cc3cccnc3)ccc1N[C@@H]2CO,1.03 ± 0.021
5,C[C@H]1CCCCO[C@H](CN(C)S(=O)(=O)c2ccccc2)[C@@H](C)CN([C@@H](C)CO)C(=O)c2cc(NC(=O)Nc3ccc4c(c3)OCO4)ccc2O1,0.891 ± 0.028
6,O=C(Cc1ccncc1)N1CC[C@@H]2[C@H]1c1cc(-c3ccccc3F)ccc1N[C@@H]2CO,1.03 ± 0.046
7,O=C(Nc1ccc2c(c1)[C@H]1C[C@@H](CC(=O)N3CCc4ccccc4C3)O[C@@H](CO)[C@H]1O2)c1ccc2c(c1)OCO2,1.08 ± 0.12
8,CCCC#Cc1ccc([C@@H]2[C@@H](CO)N3C(=O)CN(C(=O)Nc4cccc(F)c4)C[C@H]23)cc1,1.056 ± 0.003
9,CC(C)NC(=O)N(C)C[C@H]1Oc2c(NS(=O)(=O)c3cccs3)cccc2C(=O)N([C@H](C)CO)C[C@@H]1C,1.03 ± 0.12
10,CCCNC[C@H]1[C@@H](c2ccc(-c3cccc(C#N)c3)cc2)[C@@H](CO)N1C(C)=O,0.997 ± 0.1
11,CNC[C@@H]1OCCCC[C@@H](C)Oc2ccc(NS(=O)(=O)c3ccc(F)cc3)cc2C(=O)N([C@H](C)CO)C[C@H]1C,1.021 ± 0.0045
12,COc1ccccc1NC(=O)N1[C@H](C#N)[C@@H](c2ccccc2)[C@@H]1CO,1.07 ± 0.021
13,O=C(Nc1ccc(C(F)(F)F)cc1)Nc1ccc2c(c1)[C@@H]1C[C@@H](CC(=O)N3CCc4ccccc4C3)O[C@H](CO)[C@@H]1O2,0.881 ± 0.037
14,O=C(NC[C@H]1[C@@H](c2ccccc2)[C@H](CO)N1C(=O)Cc1ccncc1)C1CCC1,0.951 ± 0.055
15,CNC(=O)C[C@H]1CC[C@@H]2[C@H](COC[C@@H](O)CN2Cc2ccccc2F)O1,1.07 ± 0.021
16,Cc1noc(C)c1S(=O)(=O)N(C)C[C@@H]1OCCCC[C@@H](C)Oc2ccc(NC(=O)CCC(F)(F)F)cc2C(=O)N([C@@H](C)CO)C[C@H]1C,1.03 ± 0.085
17,CC(=O)N1CC2(C1)[C@H](c1ccc(-c3cccc(C#N)c3)cc1)[C@@H](CO)N2CCC(F)(F)F,1.1 ± 0.046
18,CO[C@H]1CN(C)C(=O)c2ccc(NC(=O)Nc3ccccc3Cl)cc2OC[C@H](C)NC[C@H]1C,0.9328 ± 0.0039
19,Cc1noc(C)c1NC(=O)N(C)C[C@@H]1Oc2cc(C#CCN(C)C)ccc2S(=O)(=O)N([C@H](C)CO)C[C@@H]1C,1.06 ± 0.048
20,COc1cccc(C(=O)Nc2ccc3c(c2)C(=O)N(C)[C@H]2CC[C@@H](CC(=O)N[C@H](C)c4ccccc4)O[C@@H]2CO3)c1,1.15 ± 0.093
21,CCS(=O)(=O)Nc1ccc2c(c1)C(=O)N(C)C[C@H](OC)[C@@H](C)CN(CC1CCCCC1)[C@@H](C)CO2,0.952 ± 0.036
22,C/C=C/c1ccc2n(c1=O)C[C@@H]1[C@@H](CO)[C@H](C(=O)N[C@@H](C)c3ccccc3)[C@H]2N1Cc1cncnc1.C/C=C\c1ccc2n(c1=O)C[C@@H]1[C@@H](CO)[C@H](C(=O)N[C@@H](C)c3ccccc3)[C@H]2N1Cc1cncnc1,1.06 ± 0.037
23,O=C(C[C@H]1CC[C@@H]2[C@H](COC[C@@H](O)CN2CCc2ccccc2)O1)NCCCN1CCOCC1,1.07 ± 0.054

row,Compound,viability index
1,CNC[C@H]1Oc2c(N)cccc2C(=O)N([C@@H](C)CO)C[C@@H]1C,0.962 ± 0.015
2,C[C@H](NC(=O)[C@@H]1[C@@H](CO)[C@@H]2Cn3c(cccc3=O)[C@@H]2N1CCC(F)(F)F)c1ccccc1,1.02 ± 0.056
3,CO[C@@H]1CN(C)C(=O)c2ccc(NC(=O)NC3CCCCC3)cc2OC[C@@H](C)N(CCc2ccccc2)C[C@H]1C,0.984 ± 0.083
4,CN1C(=O)c2cc(NC(=O)C3CCOCC3)ccc2OC[C@H]2O[C@@H](CC(=O)NCc3ccccc3F)CC[C@@H]21,1.05 ± 0.062
5,C[C@H]1CCCCO[C@@H](CN(C)C(=O)Nc2ccc3c(c2)OCO3)[C@@H](C)CN([C@@H](C)CO)C(=O)c2cc(NS(=O)(=O)c3ccc(F)cc3)ccc2O1,0.98 ± 0.064
6,O=C(O)C[C@H]1C[C@@H]2c3cc(NC(=O)Nc4ccc(C(F)(F)F)cc4)ccc3O[C@@H]2[C@H](CO)O1,1.07 ± 0.011
7,C[C@@H]1CCCCO[C@H](CN(C)S(=O)(=O)c2cn(C)cn2)[C@H](C)CN([C@@H](C)CO)C(=O)c2cc(N(C)C)ccc2O1,1.08 ± 0.024
8,C[C@@H]1CN([C@H](C)CO)S(=O)(=O)c2ccc(-c3cncnc3)cc2O[C@@H]1CN(C)C(=O)NC1CCCC1,1.07 ± 0.054
9,COc1ccccc1C#Cc1ccc([C@@H]2[C@@H](CO)N(C(=O)C3CCC3)[C@H]2C#N)cc1,1.06 ± 0.047
10,O=C(C[C@H]1CC[C@H]2NC[C@@H](O)COC[C@@H]2O1)NC1Cc2ccccc2C1,1.01 ± 0.084
11,CCCNC(=O)N1CC2(C1)[C@@H](c1ccccc1)[C@H](CO)N2CC1CCOCC1,1.0932 ± 0.001
12,O=C(CN1CCOCC1)N1CC(=O)N2[C@H](C1)[C@@H](c1ccc(-c3cccc(F)c3)cc1)[C@@H]2CO,0.984 ± 0.086
13,O=C1C[C@@H](c2ccccc2)C(=O)N[C@H](c2ccccc2)C/C=C\C[C@@H](c2ccccc2)N1,1.13 ± 0.049
14,C[C@H](CO)N1C[C@H](C)[C@@H](CN(C)CC2CC2)OCCCC[C@H](C)Oc2ccc(NC(=O)c3ccccc3)cc2C1=O,1.07 ± 0.02
15,C[C@H]1CN([C@@H](C)CO)C(=O)c2cc(NC(=O)C3CCCCC3)ccc2O[C@H]1CN(C)Cc1ccc2c(c1)OCO2,1.04 ± 0.021
16,COCC#Cc1ccc([C@H]2[C@H]3CN(C(=O)C4CCCCC4)CC(=O)N3[C@H]2CO)cc1,1.01 ± 0.034
17,C/C=C/c1ccc([C@@H]2[C@@H](CO)N[C@@H]2CN(CC)C(=O)CN2CCOCC2)cc1,1.03 ± 0.091
18,C/C=C/c1ccc([C@H]2[C@H]3CNC[C@@H]2N3C(=O)Nc2ccc3c(c2)OCO3)cc1,1.05 ± 0.093
19,CN(C)C(=O)c1ccc(-c2ccc([C@H]3[C@@H](CO)N4C(=O)CN(C(=O)CC5CC5)C[C@@H]34)cc2)cc1,0.927 ± 0.014
20,C[C@@H]1CCCCO[C@@H](CN(C)S(=O)(=O)c2ccc(Cl)cc2)[C@@H](C)CN([C@@H](C)CO)C(=O)c2cc(NC(=O)Nc3ccc(C(F)(F)F)cc3)ccc2O1,1.06 ± 0.058
21,COc1ccccc1-c1ccccc1[C@H]1[C@@H](C#N)N(C(=O)CN(C)C)[C@H]1CO,1.18 ± 0.022
22,COc1ccc2c3c([C@H](CO)N(Cc4cc(F)ccc4F)C[C@]33CN(C3)C(=O)C3CC3)n(C)c2c1,1.01 ± 0.079
23,CN1C(=O)c2cc(NC(=O)Nc3ccc(Cl)cc3)ccc2OC[C@@H]2O[C@H](CC(=O)NCCN3CCCCC3)CC[C@@H]21,0.945 ± 0.017

row,Compound,viability index
1,COc1ccc2c3c([C@@H](CO)N(CC4CC4)C[C@]33CN(C3)C(=O)c3ccc4OCOc4c3)n(C)c2c1,1.02 ± 0.016
2,CC(C)CC#Cc1ccc([C@H]2[C@H]3CN(C(=O)Nc4ccccc4)CCCCN3[C@H]2CO)cc1,0.99 ± 0.061
3,COc1ccc2c3c([C@H](CO)NC[C@]33CN(C3)C(=O)CC3CC3)n(C)c2c1,1.09 ± 0.054
4,CCCC#Cc1ccc([C@H]2[C@H](CO)N3C(=O)CN(S(=O)(=O)c4ccccc4C)C[C@@H]23)cc1,1 ± 0.085
5,O=C(C1CCOCC1)N1CC(=O)N2[C@@H](CO)[C@@H](c3ccc(C#CCc4ccccc4)cc3)[C@@H]2C1,1.09 ± 0.065
6,CO[C@@H]1CC[C@@H]2CCOc3ccc(C#N)cc3C(=O)N(C)[C@H](C)C(=O)N(C)C[C@@H]1O2,1.07 ± 0.014
7,O=C(Cc1cccnc1)N1CC(=O)N2[C@H](C1)[C@H](c1ccc(/C=C/c3ccccc3)cc1)[C@@H]2CO,0.926 ± 0.038
8,CCc1cnc(N2[C@H](C#N)[C@H](c3ccc(-c4cccc(F)c4)cc3)[C@H]2CO)s1,1.12 ± 0.018
9,C[C@@H]1CCCCO[C@H](CN(C)C(=O)Nc2ccc3c(c2)OCO3)[C@H](C)CN([C@@H](C)CO)C(=O)c2cc(NS(=O)(=O)c3ccc(F)cc3)ccc2O1,1.06 ± 0.15
10,COC(=O)C[C@@H]1CC[C@H]2[C@@H](COc3ccc(NC(=O)c4ccc(C(F)(F)F)cc4)cc3C(=O)N2C)O1,1.13 ± 0.08
11,CC(C)[C@H]1COCc2cnnn2CCC[C@H](C)C(=O)N1,1.08 ± 0.11
12,O=C1CCC(=O)N[C@@H](c2ccc(F)cc2)C/C=C\C[C@H](c2ccc(F)cc2)N1,1.02 ± 0.011
13,COc1ccc2c3c([C@H](CO)N(C)C[C@]33CN(CC4CC4)C3)n(C)c2c1,1.03 ± 0.06
14,CN1c2ccc(-c3ccccc3)cc2[C@H]2[C@H](CCN2C(=O)NC2CCCCC2)[C@@H]1CO,0.976 ± 0.067
15,COc1ccccc1C(=O)Nc1ccc2c(c1)C(=O)N(C)C[C@H](OC)[C@@H](C)CN(C(C)=O)[C@@H](C)CO2,1.02 ± 0.13
16,O=C([C@@H]1[C@@H](CO)[C@@H]2Cn3c(ccc(C4=CCCCC4)c3=O)[C@H]1N2)N1CCC(Cc2ccccc2)CC1,0.954 ± 0.053
17,Cc1cccc(-c2ccc([C@@H]3[C@@H]4CN(C(=O)CN(C)C)C[C@H]3N4)cc2)c1,0.477 ± 0.045
18,CCNC[C@@H]1[C@@H](c2ccccc2)[C@@H](CO)N1C(=O)Cc1ccccn1,1.0939 ± 0.0009
19,C[C@@H](NC(=O)C[C@H]1C=C[C@H](NC(=O)c2cccnc2)[C@H](CO)O1)c1ccccc1,1 ± 0.063
20,COc1ccc2c3c([nH]c2c1)[C@@H](CO)N(C[C@]31CCN(CC1)C(=O)c1ccccc1F)C(=O)Nc1ccc(F)cc1,0.948 ± 0.015
21,Cc1nn(C)cc1NC(=O)C[C@H]1CC[C@@H]2[C@@H](COc3ccc(NC(=O)C4CCOCC4)cc3C(=O)N2C)O1,1.1 ± 0.017
22,C[C@@H]1CN([C@@H](C)CO)C(=O)c2ccccc2-c2ccccc2CO[C@@H]1CN(C)Cc1ccc2c(c1)OCCN2C,1 ± 0.14
23,CCc1cnc(N2[C@H](C#N)[C@@H](c3ccccc3C3=CCCCC3)[C@@H]2CO)s1,1.15 ± 0.013
